The campaign covered roughly 39,000 compounds. About 220 (0.56%) showed activity. The list shows a part of the results.
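Also: static incubation at 37 °C against the wild-type strain, values averaged over two biological replicates.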

For this assay, the system named is Escherichia coli K-12 BW25113. The experiment in a line: relative growth (OD600 normalised to plate interquartile mean) (fraction); higher = less growth inhibition, active = 0.2 or less. Particulars: 50 µM; LB; incubation time: overnight (16-24 h).
For the molecule `CCCCOc1ccc(C(=O)C2=C(O)C(=O)N(Cc3cccnc3)[C@H]2c2ccc(O)c(OCC)c2)c(C)c1`, the relative growth was inactive: 1.
`CCNC(=O)C[C@H]1CC[C@H]2[C@@H](COC[C@H](O)CN2C(=O)Nc2c(C)noc2C)O1`: the relative growth was inactive: 0.999.
Then `CCCN(C)C[C@@H]1OCCCC[C@H](C)Oc2ccc(NC(=O)NC3CCCCC3)cc2C(=O)N([C@@H](C)CO)C[C@@H]1C`, with inactive: 1.01.
Regarding `CC=Cc1ccc(OC)cc1`, the relative growth is inactive: 1.09.
To `CN(C)C(=O)C[n+]1ccc(/C=N/O)cc1` belongs inactive: 1.04; to `C[C@H](CO)N1C[C@H](C)[C@@H](CN(C)Cc2ccc(Cl)c(Cl)c2)OCCCC[C@H](C)Oc2ccc(NC(=O)Cc3ccccc3)cc2C1=O`, inactive: 0.931; to `CC(C)(C)S(=O)N1Cc2cc(C(=O)N[C@@H]3CCN(Cc4ccccc4)C3)nc(-c3cccc(-c4cccc(F)c4)c3)c2[C@@H]1CCO` (stereo partly drawn), inactive: 1.01.
To `Nc1ncnc2c([C@@H]3N[C@H](CO)[C@@H](O)[C@H]3O)c[nH]c12` belongs inactive: 0.999; to `C[C@@H]1CN([C@H](C)CO)C(=O)c2cc(C#CCN(C)C)cnc2O[C@@H]1CN(C)Cc1ccc2c(c1)OCO2`, inactive: 0.967; to `COc1ccccc1-c1cccc(-c2nc(C(=O)N3CCCCC3)cc3c2[C@@H](CCO)N([S@](=O)C(C)(C)C)C3)c1`, inactive: 1.01.
Consider `COc1ccc(NC(=O)N(C)C[C@H]2OCCCC[C@@H](C)Oc3ccc(NC(=O)Cc4ccccc4)cc3C(=O)N([C@@H](C)CO)C[C@@H]2C)cc1`, for which the relative growth is inactive: 1.03.
To `COc1ccc(CN(C)C[C@@H]2OCCCC[C@H](C)Oc3ccc(NS(=O)(=O)c4ccc(C)cc4)cc3C(=O)N([C@@H](C)CO)C[C@H]2C)cc1` belongs inactive: 0.995.
Then `COCC(=O)Nc1ccc2c(c1)OC[C@@H](C)N(Cc1cccc(F)c1)C[C@H](C)[C@H](OC)CN(C)C2=O`, with inactive: 1.01; and `COc1ccc(CN(C)C[C@H]2Oc3c(NC(=O)c4cnccn4)cccc3C(=O)N([C@@H](C)CO)C[C@@H]2C)cc1`, with inactive: 0.94.
To `O=C(Nc1cccc2cccnc12)[C@@H]1[C@H](c2ccc(Br)cc2)CN1C(=O)OCc1ccc([N+](=O)[O-])cc1` belongs inactive: 1.04; to `CC(=N)NCCCC[C@H](N)C(=O)O`, inactive: 0.988.
For `C[C@@H]1CN([C@@H](C)CO)S(=O)(=O)c2ccc(-c3ccncc3)cc2O[C@H]1CN(C)S(=O)(=O)c1ccccc1F`, the relative growth was inactive: 0.975.
To `C[C@@H]1CN([C@@H](C)CO)C(=O)c2cccc(NC(=O)CCCCCC(=O)Nc3ccccc3N)c2O[C@H]1CN(C)Cc1ccc(Cl)c(Cl)c1` belongs inactive: 0.997.
`COc1ccc(NC(=O)Nc2ccc3c(c2)CC(=O)N([C@@H](C)CO)C[C@H](C)[C@@H](CN(C)Cc2ccc(-c4ccccc4)cc2)O3)cc1`: the relative growth was inactive: 0.966.
Take `Cc1noc(C)c1S(=O)(=O)N(C)C[C@H]1OCc2cnnn2CCCC(=O)N([C@H](C)CO)C[C@@H]1C`: the relative growth was inactive: 1.
Then `C[C@H](CO)N1C[C@H](C)[C@@H](CN(C)Cc2ccc(Oc3ccccc3)cc2)Oc2ccc(NC(=O)Nc3ccc(F)cc3)cc2C1=O`, with inactive: 0.964.
With `C[C@H](CO)N1C[C@H](C)[C@H](CN(C)C(=O)CN2CCOCC2)Oc2cc(/C=C/c3ccccc3)ccc2S1(=O)=O`, the relative growth is inactive: 0.986.
Then `O=C(C[C@H]1CC[C@H]2[C@@H](COC[C@H](O)CN2C(=O)Nc2ccc3c(c2)OCO3)O1)N1CCN(c2ccccc2)CC1`, with inactive: 0.991; and `C[C@H](CO)N1C[C@H](C)[C@H](CN(C)S(=O)(=O)c2cn(C)cn2)OCCCC[C@H](C)Oc2ccc(NC(=O)CCCN(C)C)cc2C1=O`, with inactive: 0.983.
To `CN1C(=O)c2cc(NC(=O)C3CCOCC3)ccc2OC[C@@H]2O[C@H](CC(=O)NCc3ccccc3F)CC[C@H]21` belongs inactive: 0.995; to `Cc1ccc(S(=O)(=O)N(C)C[C@@H]2OCCCC[C@H](C)Oc3ccc(NS(C)(=O)=O)cc3C(=O)N([C@H](C)CO)C[C@@H]2C)cc1`, inactive: 1.04; to `Cc1ccc(C2(CN3CCN4C(=O)CN(C)C(=O)[C@H]4C3)CCNCC2)nc1`, inactive: 1.02.
To `C[C@@H]1CCCCO[C@H](CN(C)Cc2ccc(C(F)(F)F)cc2)[C@H](C)CN([C@@H](C)CO)C(=O)c2cc(NC(=O)C3CCCCC3)ccc2O1` belongs inactive: 0.98; to `C[C@@H]1CN([C@H](C)CO)C(=O)c2cc(NC(=O)Nc3ccc(C(F)(F)F)cc3)ccc2O[C@@H](C)CCCCO[C@H]1CN(C)S(=O)(=O)c1cn(C)cn1`, inactive: 0.979; to `O=C(OCc1ccco1)c1ccc(-c2ccc(Cl)cc2)s1`, inactive: 1.02.
With `C=C1c2cccc(O)c2C(=O)[C@@H]2C(=O)[C@]3(O)C(=O)[C@@H](C(N)=O)C(=O)[C@@H](N(C)C)[C@@H]3[C@@H](O)[C@H]12`, the relative growth is active: 0.0752.
On to `COc1cc(CO)cc(I)c1O[C@H]1C=C(C(=O)NCCO)C[C@@H](NCc2ccccc2F)[C@@H]1O`, for which the relative growth was inactive: 0.996.
With `N[C@@H](c1ccncc1)c1ccc(Cl)cc1`, the relative growth was inactive: 1.
Take `CNC(=O)C[C@H]1CC[C@H]2[C@@H](COC[C@H](O)CN2C(=O)Nc2cccc(OC)c2)O1`: the relative growth is inactive: 0.954.
Then `O=C(C[C@H]1CC[C@@H]2[C@H](COC[C@@H](O)CN2S(=O)(=O)c2ccc(Cl)cc2)O1)N[C@@H]1CCN(Cc2ccccc2)C1`, with inactive: 0.98.
To `O=C(C[C@@H]1CC[C@H]2[C@@H](COC[C@H](O)CN2C(=O)c2ccncc2)O1)NC1CCC1` belongs inactive: 0.986; to `COc1ccc(S(=O)(=O)Nc2ccc3c(c2)C(=O)N([C@H](C)CO)C[C@H](C)[C@H](CN(C)S(=O)(=O)c2c(C)noc2C)O3)cc1`, inactive: 0.99; to `COc1ccccc1CNC(=O)C[C@@H]1C[C@@H]2c3cc(NC(=O)c4cccnc4)ccc3O[C@@H]2[C@H](CO)O1`, inactive: 0.963.
Then `C[C@H](CO)N1C[C@H](C)[C@H](CN(C)Cc2ccc3c(c2)OCO3)OCCCC[C@H](C)Oc2ccc(NS(=O)(=O)c3cccs3)cc2C1=O`, with inactive: 1.02; and `Cc1ccc(S(=O)(=O)Nc2ccc3c(c2)CC(=O)N([C@H](C)CO)C[C@@H](C)[C@@H](CN(C)S(=O)(=O)c2c(C)noc2C)O3)cc1`, with inactive: 1.01; and `COc1ccc(S(=O)(=O)Nc2ccc3c(c2)CC(=O)N([C@@H](C)CO)C[C@H](C)[C@H](CN(C)S(=O)(=O)c2ccc(OC)cc2)O3)cc1`, with inactive: 0.999.
Consider `Nc1ccc(/C=C/c2ccccc2)cc1`, for which the relative growth was inactive: 0.999.
Then `COc1ccc(NC(=O)N(C)C[C@@H]2OCCCC[C@@H](C)Oc3ccc(NC(=O)CCC(F)(F)F)cc3C(=O)N([C@H](C)CO)C[C@@H]2C)cc1`, with inactive: 1.02; and `O=C1O[C@H](c2ccccc2)[C@H](c2ccccc2)N2[C@H]1[C@@H](C(=O)O)[C@]1(C(=O)Nc3ccc(C#CC4(O)CCCCCC4)cc31)[C@H]2c1ccc(OCCO)cc1`, with inactive: 0.983.
Then `C[C@H]1CN([C@@H](C)CO)C(=O)c2cc(NS(=O)(=O)c3ccccc3)ccc2O[C@@H]1CN(C)Cc1ccc(-c2ccccc2)cc1`, with inactive: 0.96; and `C=CCOC(=O)[C@@H]1[C@H]2C(=O)O[C@H](c3ccccc3)[C@H](c3ccccc3)N2[C@H](c2ccc(OCCOC(=O)[C@H]3C[C@H]4C(=O)N[C@@H](CCCCNC(C)=O)C(=O)N4[C@H]3c3ccc(O)cc3)cc2)[C@@]12C(=O)Nc1ccc(I)cc12`, with inactive: 1.07.
Then `COCC#Cc1cnc2c(c1)C(=O)N([C@@H](C)CO)C[C@H](C)[C@H](CN(C)C(=O)Nc1cc(F)ccc1F)O2`, with inactive: 0.996; and `C[C@H]1CN([C@@H](C)CO)C(=O)c2cc(NS(=O)(=O)c3ccc(Cl)cc3)ccc2O[C@@H]1CN(C)C(=O)Nc1ccc(C(F)(F)F)cc1`, with inactive: 0.991.
On to `C[C@H]1CN([C@@H](C)CO)C(=O)Cc2cc(NC(=O)Cn3cnnn3)ccc2O[C@H]1CN(C)C(=O)Nc1ccccc1`, for which the relative growth is inactive: 0.985.
To `C[C@@H]1CN([C@@H](C)CO)C(=O)c2cc(NC(=O)NC3CCCCC3)ccc2O[C@@H](C)CCCCO[C@H]1CN(C)S(=O)(=O)c1cccs1` belongs inactive: 1.02; to `O=C1O[C@H](c2ccccc2)[C@H](c2ccccc2)N2[C@H]1[C@@H](C(=O)N1CCCCCCC1)[C@]1(C(=O)Nc3ccc(C#CC4=CCCCC4)cc31)[C@H]2c1ccc(O)cc1`, inactive: 1.03.
Then `C[C@H](CO)N1C[C@H](C)[C@H](CN(C)Cc2ccc(C(F)(F)F)cc2)OCc2ccccc2-c2ccccc2C1=O`, with inactive: 0.99.
Consider `Cc1ccc(S(=O)(=O)Nc2ccc3c(c2)C(=O)N([C@H](C)CO)C[C@H](C)[C@@H](CN(C)C(=O)C2CCCCC2)OCCCC[C@@H](C)O3)cc1`, for which the relative growth is inactive: 1.02.
As for `C[C@H]1CCCCO[C@@H](CN(C)S(=O)(=O)c2ccc(F)cc2)[C@@H](C)CN([C@@H](C)CO)C(=O)c2cc(NC(=O)NC3CCCCC3)ccc2O1`, the relative growth was inactive: 1.01.
Then `C[C@H](CO)N1C[C@H](C)[C@@H](CN(C)S(=O)(=O)c2cn(C)cn2)OCc2cnnn2CCCC1=O`, with inactive: 0.998.
Regarding `C[C@H]1CN([C@@H](C)CO)C(=O)Cc2cc(NS(=O)(=O)c3ccccc3)ccc2O[C@H]1CN(C)S(=O)(=O)c1ccccc1`, the relative growth was inactive: 1.02.
`COc1ccc(NC(=O)N(C)C[C@@H]2OCCCC[C@@H](C)Oc3ccc(NC(=O)NC4CCCCC4)cc3C(=O)N([C@@H](C)CO)C[C@@H]2C)cc1`: the relative growth was inactive: 1.
For the molecule `C[C@@H]1CN([C@H](C)CO)C(=O)c2cc(NC(=O)Nc3cccc4ccccc34)ccc2O[C@H]1CN(C)C(=O)Nc1ccc(F)cc1`, the relative growth is inactive: 1.01.

(Values after the supplement of paper PMC9446081.)
